{"source": "PubChem BioAssay AID504333", "about": "(National Center for Advancing Translational Sciences (NCATS), 2011)", "note": "The whole screen tested about 360,000 compounds, of which about 16,000 (4.4%) were called active. The inconclusive results got no clear call from the source; some entries with a clear call stand among them for comparison. Calls follow the shape of the dose curve; as a rule, active = well fitted inhibition curve with a large enough effect; inconclusive = small, poorly fitted or top-dose-only effect; inactive = no such curve, though single readings can be large or run the other way. A potency beside an inconclusive call is a rough fit, not a confirmed value. % is scaled to controls: 0 for no effect and ±100 for the full control effect; potency is read from the fitted curve at half-maximal effect; tags tell the direction and shape of the fitted curve.", "data": [{"biological_target": "Bromodomain adjacent to zinc finger domain protein 2B (Homo sapiens) (UniProt Q9UIF8)", "sequence (Q9UIF8 whole entry, looked up, the tested form may be a part)": "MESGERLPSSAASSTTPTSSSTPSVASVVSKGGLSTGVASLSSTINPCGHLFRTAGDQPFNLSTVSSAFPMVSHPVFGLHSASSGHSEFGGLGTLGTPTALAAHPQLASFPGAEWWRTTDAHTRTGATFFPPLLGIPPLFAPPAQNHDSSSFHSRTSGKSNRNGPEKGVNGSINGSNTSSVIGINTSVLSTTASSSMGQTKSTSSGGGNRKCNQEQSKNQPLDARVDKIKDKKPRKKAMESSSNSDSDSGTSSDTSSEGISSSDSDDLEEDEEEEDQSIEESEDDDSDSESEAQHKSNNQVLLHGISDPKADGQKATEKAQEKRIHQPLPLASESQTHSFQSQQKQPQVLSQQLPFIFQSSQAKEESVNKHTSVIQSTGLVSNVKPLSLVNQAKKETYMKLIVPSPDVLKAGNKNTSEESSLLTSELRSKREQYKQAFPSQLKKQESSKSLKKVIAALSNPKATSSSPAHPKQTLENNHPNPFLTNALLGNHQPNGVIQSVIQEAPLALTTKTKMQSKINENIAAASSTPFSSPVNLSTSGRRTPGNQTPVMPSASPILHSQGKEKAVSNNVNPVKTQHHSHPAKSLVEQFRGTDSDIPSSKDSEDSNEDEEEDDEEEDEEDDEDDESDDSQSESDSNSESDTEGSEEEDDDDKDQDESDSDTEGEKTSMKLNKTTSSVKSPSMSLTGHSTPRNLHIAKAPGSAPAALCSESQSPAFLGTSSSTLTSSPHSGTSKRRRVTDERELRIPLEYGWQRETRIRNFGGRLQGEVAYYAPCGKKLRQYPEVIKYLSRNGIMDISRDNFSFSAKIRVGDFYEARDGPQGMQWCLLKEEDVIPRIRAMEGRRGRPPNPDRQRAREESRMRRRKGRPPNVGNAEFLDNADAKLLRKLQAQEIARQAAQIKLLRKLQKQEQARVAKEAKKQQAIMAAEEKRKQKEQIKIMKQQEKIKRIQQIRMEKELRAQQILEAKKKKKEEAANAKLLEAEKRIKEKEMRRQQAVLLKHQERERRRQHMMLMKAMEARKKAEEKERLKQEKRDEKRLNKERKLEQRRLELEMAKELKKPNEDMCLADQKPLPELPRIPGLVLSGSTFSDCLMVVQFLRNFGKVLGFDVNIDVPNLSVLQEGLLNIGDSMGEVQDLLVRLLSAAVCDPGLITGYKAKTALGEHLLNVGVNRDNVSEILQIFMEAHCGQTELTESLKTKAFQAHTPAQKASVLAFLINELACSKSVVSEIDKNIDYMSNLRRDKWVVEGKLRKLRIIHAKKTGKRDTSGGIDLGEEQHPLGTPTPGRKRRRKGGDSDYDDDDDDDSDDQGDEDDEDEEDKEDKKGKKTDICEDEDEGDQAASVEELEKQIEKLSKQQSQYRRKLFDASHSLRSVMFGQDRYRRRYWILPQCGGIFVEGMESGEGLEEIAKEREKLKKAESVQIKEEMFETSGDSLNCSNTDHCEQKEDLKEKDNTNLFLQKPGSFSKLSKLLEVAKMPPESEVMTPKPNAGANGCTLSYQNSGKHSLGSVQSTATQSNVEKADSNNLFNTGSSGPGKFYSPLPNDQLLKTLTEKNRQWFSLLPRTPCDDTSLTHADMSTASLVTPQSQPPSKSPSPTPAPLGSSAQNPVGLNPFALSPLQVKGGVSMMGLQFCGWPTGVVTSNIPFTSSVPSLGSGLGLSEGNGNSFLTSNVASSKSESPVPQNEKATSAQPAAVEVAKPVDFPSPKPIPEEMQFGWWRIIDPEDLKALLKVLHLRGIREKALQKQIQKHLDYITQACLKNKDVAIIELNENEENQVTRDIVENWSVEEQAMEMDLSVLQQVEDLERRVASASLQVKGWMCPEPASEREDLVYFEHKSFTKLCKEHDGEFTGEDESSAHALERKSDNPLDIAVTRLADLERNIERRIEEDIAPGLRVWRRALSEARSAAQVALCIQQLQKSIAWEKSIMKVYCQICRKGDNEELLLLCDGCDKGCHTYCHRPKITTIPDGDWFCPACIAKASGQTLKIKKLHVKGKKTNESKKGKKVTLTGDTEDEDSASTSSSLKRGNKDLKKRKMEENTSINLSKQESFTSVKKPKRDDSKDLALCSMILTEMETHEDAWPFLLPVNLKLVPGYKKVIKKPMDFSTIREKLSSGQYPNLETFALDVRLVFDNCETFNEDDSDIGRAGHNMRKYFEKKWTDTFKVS", "assay": "qHTS Assay for Inhibitors of BAZ2B; also: nearly all actives have a fitted effect of over 60% in size", "settings": "AlphaScreen BAZ2B-H3K14Ac peptide displacement; activity change, negative = inhibition: at 114 µM (top of the series)", "in_short": "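Inhibition is scored as reduced AlphaScreen emission. The BAZ2B/b-H3(5-23)K14Ac complex (50 nM each) in PBS pH 7.4, 0.01% Tween-20 meets compound (up to 110 uM) for 30 min at RT before bead addition.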", "values": [{"compound": "Cc1cc(C)c2nc(N(Cc3cccnc3)C(=O)CCOc3ccccc3)sc2c1", "activity change, negative = inhibition": "inactive: -1.93%"}, {"compound": "CN(CCCNC(=O)CN1C(=O)CC(C)(C)S(=O)(=O)c2ccccc21)C1CCCCC1", "Potency": "inconclusive: 31.6 µM [inhibitor, single point]"}, {"compound": "COc1cccc(NC(=O)CCN2CCN(c3ccccc3F)CC2)c1", "activity change, negative = inhibition": "inactive: 1.5%"}, {"compound": "Cc1nc(C)c(-c2csc(Nc3ccc(C(=O)O)c(O)c3)n2)s1", "Potency": "inconclusive: 44.7 µM [inhibitor, partial curve]"}, {"compound": "Cc1ccccc1OCC(=O)Nc1nnc(-c2ccncc2)s1", "activity change, negative = inhibition": "inactive: -20.7%"}, {"compound": "CCOC1(OCC)N=C(N)C2(C#N)C(c3cccc(OC)c3OC)C12C#N", "note": "(configuration not stated)", "activity change, negative = inhibition": "inactive: -35%"}, {"compound": "COc1ccc2c(c1)[nH]c1c(Cl)ncnc12", "Potency": "inconclusive: 79.4 µM [inhibitor, single point]"}, {"compound": "CCCOc1ccc(OCCOCCNCc2ccccc2)cc1", "Potency": "inconclusive: 79.4 µM [inhibitor, single point]"}, {"compound": "Cc1ccc(-c2noc(CN(C)C(=O)c3ccc(Br)o3)n2)cc1", "Potency": "inconclusive: 79.4 µM [inhibitor, single point]"}, {"compound": "COc1ccc(C2CC(=O)Oc3c(C(CCN4CCCC(C)C4)c4ccc(N(C)C)cc4)c(OC)cc(OC)c32)cc1", "note": "(configuration not stated)", "Potency": "active: 14.1 µM"}, {"compound": "CN(CCc1ccccn1)S(=O)(=O)c1ccccc1F", "Potency": "inconclusive: 89.1 µM [inhibitor, single point]"}, {"compound": "NC(=S)N/N=C/c1c[nH]c2ccc(OCc3ccccc3)cc12", "Potency": "active: 35.5 µM"}, {"compound": "O=C(CSc1nc(=O)n2ccccc2n1)N1CCN(c2ccccc2)CC1", "Potency": "inconclusive: 0.708 µM [inhibitor, full curve, poor fit]"}, {"compound": "O=C(Nc1nnc(C2CC2)o1)c1ccc(S(=O)(=O)N2CCc3ccccc3C2)cc1", "Potency": "inconclusive: 89.1 µM [inhibitor, single point]"}, {"compound": "C(#Cc1ccccc1)CN1CCN(c2ccccn2)CC1", "Potency": "active: 50.1 µM"}, {"compound": "Cc1ccc(Nc2c(-c3ccccn3)nc3cccc(C)n23)cc1", "Potency": "active: 15.8 µM"}, {"compound": "O=C(NCc1ccco1)c1ccc2c(c1)N(Cc1ccccc1)C(=O)CS2", "Potency": "inconclusive: 89.1 µM [inhibitor, single point]"}, {"compound": "Cc1ccc(N/N=C/c2ccc(N3CCOCC3)cc2)cc1C", "Potency": "inconclusive: 44.7 µM [inhibitor, partial curve]"}, {"compound": "C#CCOCCOCCOCCNc1nc(N2CCN(C(=O)CCCCCCCCCCNC(=O)[C@H](CCCCN)n3cc(CCO)nn3)CC2)nc(N2CCN(C(=O)CCCCCCCCCCNC(=O)[C@@H]([C@H](C)O)n3cc(C)nn3)CC2)n1", "Potency": "active: 50.1 µM"}, {"compound": "Cc1ccc(Nc2cc(C)nc3c(C)ccc([N+](=O)[O-])c23)cc1", "Potency": "active: 10 µM"}, {"compound": "COc1ccc(-c2csc(NCc3ccco3)n2)cc1", "Potency": "active: 50.1 µM"}, {"compound": "CCc1cccc(CC)c1NC(=S)N(CCN(C)C)C(C)c1cccnc1", "note": "(configuration not stated)", "activity change, negative = inhibition": "inactive: -22.1%"}, {"compound": "CCN(CC)S(=O)(=O)c1ccc(NC2c3ccccc3C(=O)N2Cc2ccco2)cc1", "note": "(configuration not stated)", "activity change, negative = inhibition": "inactive: -24.7%"}, {"compound": "CC(C)CC(NS(=O)(=O)c1cc(C(=O)O)ccc1Cl)C(=O)O", "note": "(configuration not stated)", "Potency": "inconclusive: 79.4 µM [inhibitor, single point]"}, {"compound": "CCCCn1c(O)c(/C=C/C=C/C=Nc2ccccc2)sc1=S", "Potency": "active: 6.31 µM"}, {"compound": "COc1ccc(C(=O)NC(=S)Nc2ccc(N3CCN(C(C)=O)CC3)cc2)cc1[N+](=O)[O-]", "Potency": "inconclusive: 31.6 µM [inhibitor, full curve]"}, {"compound": "COc1ccc(NC(=S)N(CCCN2CCN(C)CC2)Cc2cccs2)cc1", "activity change, negative = inhibition": "inactive: -3.59%"}, {"compound": "CCC(=O)NC(=S)Nc1ccc(N2CCOCC2)cc1", "Potency": "inconclusive: 89.1 µM [inhibitor, single point]"}, {"compound": "CC1Cc2cc(S(=O)(=O)N3CCN(c4cccc(Cl)c4)CC3)ccc2N1C(=O)C1CC1", "note": "(configuration not stated)", "Potency": "inconclusive: 70.8 µM [inhibitor, single point]"}, {"compound": "Cc1nc(-c2ccc(S(=O)(=O)NCc3ccc(N(C)C)cc3)cc2)co1", "Potency": "active: 39.8 µM"}, {"compound": "Cc1cc(OC(=O)c2cccc([N+](=O)[O-])c2)c(C)cc1CN1CCOCC1", "Potency": "inconclusive: 35.5 µM [inhibitor, partial curve]"}, {"compound": "CSc1ccc(CN2CCC(Cc3ccccc3)CC2)cc1", "Potency": "active: 70.8 µM"}, {"compound": "Cc1cccc(-n2ncc3c(N4CCN(c5ccccc5)CC4)ncnc32)c1", "activity change, negative = inhibition": "inactive: -7.48%"}, {"compound": "CCN(CC)c1ccc(NC(=O)Cn2nc(C)n3cccc3c2=O)c(C)c1", "activity change, negative = inhibition": "inactive: -1.73%"}, {"compound": "CCOC(=O)c1ccc(N2C(=O)C3C(C2=O)C(C(=O)c2ccc(Cl)cc2)N2CCCC32)cc1", "note": "(configuration not stated)", "Potency": "active: 50.1 µM"}, {"compound": "NC(=O)c1cc(S(=O)(=O)N2CCCC2)ccc1OCCOc1ccccc1", "activity change, negative = inhibition": "inactive: -4.72%"}, {"compound": "COc1cc(C(=O)NNC(=O)c2cc(S(=O)(=O)N(C)C)ccc2N2CCCC2)cc(OC)c1OC", "activity change, negative = inhibition": "inactive: 11%"}, {"compound": "CCCCn1c(CNC(=O)C(C)(C)C)nc2ccccc21", "activity change, negative = inhibition": "inactive: -4.06%"}, {"compound": "O=[N+]([O-])c1ccc(Cl)c(S(=O)(=O)Nc2cccc(-c3ccc(N4CCCC4)nn3)c2)c1", "Potency": "inconclusive: 50.1 µM [inhibitor, partial curve]"}, {"compound": "Cn1nc(C(=O)Nc2ccc3c(c2)OCCO3)cc1C(=O)O", "Potency": "inconclusive: 89.1 µM [inhibitor, single point]"}, {"compound": "CCC(=O)Nc1ccc(C(=O)CSc2nnc(-c3ccc(O)cc3)n2CC2CCCO2)cc1", "note": "(configuration not stated)", "Potency": "inconclusive: 7.08 µM [inhibitor, single point]"}, {"compound": "O=C(CN1C(=O)c2ccccc2S1(=O)=O)Nc1ccccn1", "Potency": "inconclusive: 89.1 µM [inhibitor, single point]"}, {"compound": "CC(C)(CNC(=O)c1ccc(Cl)c(S(=O)(=O)N2CCc3ccccc3C2)c1)N1CCOCC1", "Potency": "inconclusive: 79.4 µM [inhibitor, single point]"}, {"compound": "NS(=O)(=O)c1cccc(NC(=O)COC(=O)CCN2C(=O)c3ccccc3C2=O)c1", "activity change, negative = inhibition": "inactive: -4.98%"}, {"compound": "CCOc1cccc(C2CC(=O)Nc3cc(OC)c(OC)cc32)c1", "note": "(configuration not stated)", "Potency": "inconclusive: 50.1 µM [inhibitor, partial curve]"}, {"compound": "CC1(C)Cc2ccccc2C(NNC(=O)c2ccccn2)=N1", "Potency": "active: 31.6 µM"}, {"compound": "Cc1nc(Nc2cccc(C(C)O)c2)c2nnn(Cc3ccc(F)cc3)c2n1", "note": "(configuration not stated)", "Potency": "inconclusive: 3.55 µM [inhibitor, full curve, poor fit]"}]}]}
